Laboratory results: PubChem BioAssay (NCI)
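Interpolation was linear, between the two tested concentrations surrounding the appropriate level; five concentrations were tested over 48 hours in 96-well plates. Here, GI50 denotes the concentration required for 50% inhibition of growth. TGI: total growth inhibition.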 Numbered stars: 1 amine (or outer) side, 2 acyl side, 3 side chain; on linkers, the order of the positions; unused ones are H or OH. Square brackets hold non-standard residues; d marks the D form. Peptide text beside a SMILES is read from it. * marks the point of attachment. X9 = C/C=C/CC(C)C(O)[C@H](N[*:1])C(=O)[*:2]; Decanoyl = CCCCCCCCCC(=O)*; Leu(ol) = CC(C)C[C@H](N)CO; Iva = CC[C@](C)(N)C(=O)O; Aib = CC(C)(N)C(=O)O

Tested on: NCI-H322M lung
Test: growth of human tumour cells (NCI), 48 h

Compound	GI50 [µM]	TGI [µM]
CNCCN(C)c1ccc(Nc2cc(NC3CC3)n3ncc(C#N)c3n2)cc1NC(C)=O	0.0188	–
NS(=O)(=O)c1ccc(Nc2nc(N/N=C/c3ccc(C(F)(F)F)cc3)nc(Nc3ccccc3)n2)cc1	3.31	12
C/C=C/CC(C)C(O)[C@H](NC(=O)[C@@H]1CCCN1C(=O)[C@](C)(CC)NC(=O)CCCCCCCCC)C(=O)N[C@@](C)(CC)C(=O)N[C@@H](CCC(N)=O)C(=O)N[C@H](CCC(N)=O)C(=O)NC(C)(C)C(=O)NC(C)(C)C(=O)N[C@@H](CCC(N)=O)C(=O)N[C@H](CC(C)C)C(=O)N[C@H](CO)CC(C)C (stereo partly drawn) (Decanoyl-[Iva]P[X9][Iva]Q[dQ][Aib][Aib]Q[dL][Leu(ol)])	1.71	3.32
COC(=O)N1CCN(CCNCc2ccc(NC(=O)c3ccc(C)c(C#Cc4cnc5cccnn45)c3)cc2C(F)(F)F)CC1	2.42	6.82
C[C@@H]1CCC/C=C/[C@H]2C[C@@H](O)C[C@@H]2[C@@H](O)/C=C/C(=O)O1	0.152	> 33.3
